# PubChem BioAssay AID1347073 (National Center for Advancing Translational Sciences (NCATS), 2019)
# Out of some 45,000 compounds screened, about 200 (0.44%) were called active. About 7% were inconclusive and are not listed. Calls follow the shape of the dose curve; as a rule, active = well fitted activation curve with a large enough effect; inconclusive = small, poorly fitted or top-dose-only effect; inactive = no such curve, though single readings can be large or run the other way. The list shows a part of the results.
# Assay: qHTS of TDP-43 Inhibitors: NCGC Sytravon Library Screen; also: 0% is about no effect; nearly all actives have a fitted effect of over 55% in size
# Details: yeast TDP-43 toxicity rescue, BacTiter-Glo growth, 24 h; series mostly up to 46.1 µM; growth rescue (activation): at the top concentration
# Summary of the method: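 TDP-43-expressing yeast, pregrown in raffinose, seeded at OD600 0.02 in galactose medium with compound for 24 hr at 30 deg C. Growth read by BacTiter-Glo luminescence, so rescue of toxicity appears as activation.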
row,SMILES,growth rescue (activation)
1,O=C(O)c1cc(-c2cccs2)[nH]n1,inactive: 0.0738%
2,CNC(=O)C1CC(=O)N(c2ccc(OCC(=O)N3CCCC3)cc2)C1 (centres undefined),inactive: -5.6%
3,COc1ccc(C(=O)NC(=S)Nc2cc3oc4ccccc4c3cc2OC)cc1,inactive: 6.84%
4,O=C(c1ccncc1)N1CCN(c2cccc(C(F)(F)F)c2)CC1,inactive: -21.8%
5,Cc1noc(C)c1CN(C(=S)NC1CC1)c1ccccc1,inactive: -3.97%
6,Cc1c(NC(=O)C2CCN(S(=O)(=O)c3ccccc3)CC2)c(=O)n(-c2ccccc2)n1C,inactive: -8.12%
7,Cc1c(-c2cc(C(=O)O)on2)cnn1C,inactive: -4.72%
8,CCOc1ccc(NC(=O)c2cc(OC)nc3ccccc23)cc1,inactive: 12.4%
9,Cc1ccc(CSCCNC(=O)c2ccc(NS(C)(=O)=O)cc2)cc1,inactive: -2.1%
10,Cc1cc(N(C)/N=C/c2ccccc2)nc(-c2ccccc2O)n1,inactive: 5.73%
11,O=S(=O)(c1cccc(C(F)(F)F)c1)N1CCN(C(=S)NCc2ccco2)CC1,inactive: -5.09%
12,CCCOC(=O)CN1C(=O)c2ccccc2C1=O,inactive: -2.24%
13,COc1cccc(/C=C/C(=O)Nc2cc(S(=O)(=O)N3CCOCC3)ccc2OC)c1,inactive: 6.04%
14,COCCCNCC(O)C(F)(F)F (centres undefined),inactive: -7.98%
15,CS(=O)(=O)Nc1ccc(C(=O)NCCSCc2ccccc2)cc1,inactive: 11%
16,COc1ccc(N(C)C(=O)CC2(CC(=O)O)CCCCC2)cc1,inactive: 15.5%
17,CN1CCN(S(=O)(=O)c2cccc(C(=O)N3CCc4ccccc43)c2)CC1,inactive: -14.3%
18,O=C(C[n+]1cc(-c2ccccc2)n2c1CCC2)c1cccs1,inactive: 3.98%
19,Cc1ccc(C(=O)NCCCNC(=O)c2ccco2)cc1,inactive: 9.36%
20,Cc1cnc(C(=O)NC(Cc2ccccc2)c2ccccc2)cn1 (centres undefined),inactive: 7.65%
21,Cc1cc(S(=O)(=O)NCCCN2CCOCC2)c(Cl)cc1Cl,inactive: 6.55%
22,O=C(O)Cc1ccc(C(=O)c2ccccc2F)s1,inactive: 21.8%
23,CCSc1ccccc1C(=O)Nc1ccc(S(=O)(=O)NC(C)=O)cc1,inactive: 1.01%
24,CCCCn1nnnc1SCC(=O)NC1CCCCC1,inactive: -3.22%
25,O=C(CC1COc2ccccc2O1)NCCc1ccccc1 (centres undefined),inactive: 17.3%
26,COC(=O)c1ccccc1NC(=O)c1cnn2cccnc12,inactive: 17.8%
27,CCCCOc1ccc(C(=O)N2CCN(CC(=O)Nc3ccc(C)cc3)CC2)cc1OC,inactive: 4.59%

row,SMILES,growth rescue (activation)
1,O=C(NCc1ccc(F)cc1)c1ccc(CS(=O)(=O)Cc2ccc(F)cc2)o1,inactive: 13.2%
2,CC(=O)c1nc(N2C(=O)CC(Cc3ccc(C)cc3)C2=O)sc1C (centres undefined),inactive: 15.2%
3,COC(=O)c1cc(NC(=O)c2ccccc2F)cc(C(=O)OC)c1,inactive: 0.52%
4,COc1ccccc1OCC(=O)NCCSCc1ccccc1Cl,inactive: 23.1%
5,O=c1cc(O)c2sc(Nc3ccc(Cl)c(F)c3)nc2[nH]1,inactive: 20.4%
6,Cc1ccc(C2=NO[C@@](CC(=O)O)(C(=O)Nc3ccc4c(c3)OCCO4)C2)cc1,inactive: 1.2%
7,CCC(NC(=O)c1cc(COc2c(F)cccc2F)on1)c1ccncc1 (centres undefined),inactive: -3.17%
8,CCc1nn(CC(=O)N2CCCCC2)c(=O)c2cc3sc(C)cc3n12,inactive: -4.95%
9,CNC(=S)N(Cc1cccs1)Cc1cc2cc(OC)ccc2[nH]c1=O,inactive: 9.5%
10,O=C(c1n[nH]c(=O)c2ccccc12)N1CCN(Cc2ccc3c(c2)OCO3)CC1,inactive: 27.7%
11,COc1ccc(S(=O)(=O)N(C)C)cc1NCC(=O)Nc1cccc(C#N)c1,inactive: 11%
12,COCCC(=O)N1CCC(Oc2ccc(C(=O)N3C[C@@H](C)O[C@@H](C)C3)cc2)CC1,inactive: -12.7%
13,CCCn1c(=O)c(C(=O)Nc2ncccc2C)c(O)c2ccccc21,inactive: -23.9%
14,Cc1ccc(NC(=O)CC(NCC2CCCO2)C(=O)O)cc1C (centres undefined),inactive: 4.77%
15,CC(OC(=O)c1ccc2noc(-c3ccccc3)c2c1)C(N)=O (centres undefined),inactive: 4.58%
16,O=c1oc2ccccc2c(Nc2ccccc2)c1CN1CCCCC1,inactive: -2.73%
17,CCN(CC)c1ccc(NC(=S)NCC2CCCO2)cc1 (centres undefined),inactive: -5.51%
18,O=C(NC(Cc1c[nH]c2ccccc12)C(=O)O)/C(=C/c1ccco1)NC(=O)c1ccccc1 (centres undefined),inactive: 2.4%
19,CCc1ccc(/C=N/NC(=O)c2ccccn2)cc1,inactive: 13%
20,CCCC(C)NC(=O)c1ccccc1SC (centres undefined),inactive: -8.06%
21,C=CCN(CC=C)C(=O)CN1C(=O)NC(Cc2c[nH]c3ccccc23)C1=O (centres undefined),inactive: -2.86%
22,Cc1cc(C(=O)NP(=O)(N2CCOCC2)N2CCOCC2)c(C)n1-c1ccc(N(C)C)cc1,inactive: 11.2%
23,COC1CCCN(Cc2cn(C)nc2-c2ccc(Oc3ccccc3)cc2)C1 (centres undefined),inactive: -1.71%
24,O=C(COC(=O)c1cc2ccccc2oc1=O)c1cccc([N+](=O)[O-])c1,inactive: 13.7%
25,Cc1cc(SCC(=O)N(C)C2CCS(=O)(=O)C2)nc2c(C)cccc12 (centres undefined),inactive: 0.855%
26,C=CCNc1ncnc2c1ncn2[C@H]1CN(Cc2ccccc2)C[C@@H](CO)O1,inactive: -1.44%
27,CCc1ccccc1N(C(=O)c1snc(C(N)=O)c1N)C(C(=O)NCC1CCCO1)c1ccc(OC)c(OC)c1 (centres undefined),inactive: 1.13%
